# Measurements reported in the supplement of paper PMC8728848.
# The list shows a part of the results.
# B1: CCL2 (Coprinopsis cinerea), B3GA02 (protein)
# chain: MDSPAVTLSAGNYIIYNRVLSPRGEKLALTYPGRQRTPVTVSPLDGSSEQAWILRSYDSNSNTWTISPVGSPNSQIGWGAGNVPVVLPPNNYVWTLTLTSGGYNIQDGKRTVSWSLNNATAGEEVSIGADATFSGRWVIEKV
# Tests used:
# Assay in all cases: glycan array binding signal (z-score within array); higher = stronger binding
# Details in all cases: glycan notation: IUPAC condensed, linker removed
# [1] = target: Fuc(a1-2)Gal
# How it was run: (§1)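 The binding signal is a Z-score computed within each array and averaged over linkers. Arrays of the same protein sequence at different concentrations or buffers were also averaged together. Data originate from 3228 arrays in the Consortium for Functional Glycomics database, kept only where the protein sequence was available.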
# [2] = target: Fuc(a1-2)Gal(b1-3)GalNAc
# How it was run: as §1
# [3] = target: Fuc(a1-2)Gal(b1-3)GalNAc(b1-3)Gal
# How it was run: as §1
# [4] = target: Fuc(a1-2)Gal(b1-3)GalNAc(b1-3)Gal(a1-4)Gal(b1-4)Glc
# How it was run: as §1
# [5] = target: Fuc(a1-2)Gal(b1-3)GalNAc(b1-4)[Neu5Ac(a2-3)]Gal(b1-4)Glc
# How it was run: as §1
# [6] = target: Fuc(a1-2)Gal(b1-3)GlcNAc
# How it was run: as §1
# [7] = target: Fuc(a1-2)Gal(b1-3)GlcNAc(b1-2)Man(a1-3)[Fuc(a1-2)Gal(b1-3)GlcNAc(b1-2)Man(a1-6)]Man(b1-4)GlcNAc(b1-4)GlcNAc
# How it was run: as §1
# [8] = target: Fuc(a1-2)Gal(b1-3)GlcNAc(b1-3)Gal(b1-4)Glc
# How it was run: as §1
# [9] = target: Fuc(a1-2)Gal(b1-3)GlcNAc(b1-3)[Gal(b1-4)[Fuc(a1-3)]GlcNAc(b1-6)]Gal(b1-4)Glc
# How it was run: as §1
# [10] = target: Fuc(a1-2)Gal(b1-3)[Fuc(a1-4)]GlcNAc
# How it was run: as §1
# [11] = target: Fuc(a1-2)Gal(b1-3)[Fuc(a1-4)]GlcNAc(b1-2)Man(a1-3)[Fuc(a1-2)Gal(b1-3)[Fuc(a1-4)]GlcNAc(b1-2)Man(a1-6)]Man(b1-4)GlcNAc(b1-4)GlcNAc
# How it was run: as §1
# [12] = target: Fuc(a1-2)Gal(b1-4)Glc
# How it was run: as §1
# [13] = target: Fuc(a1-2)Gal(b1-4)Glc6S
# How it was run: as §1
# [14] = target: Fuc(a1-2)Gal(b1-4)GlcNAc
# How it was run: as §1
# [15] = target: Fuc(a1-2)Gal(b1-4)GlcNAc(b1-2)Man(a1-3)[Fuc(a1-2)Gal(b1-4)GlcNAc(b1-2)Man(a1-6)]Man(b1-4)GlcNAc(b1-4)GlcNAc
# How it was run: as §1
# [16] = target: Fuc(a1-2)Gal(b1-4)GlcNAc(b1-3)Gal(b1-4)GlcNAc
# How it was run: as §1
# [17] = target: Fuc(a1-2)Gal(b1-4)GlcNAc(b1-3)Gal(b1-4)GlcNAc(b1-3)Gal(b1-4)GlcNAc
# How it was run: as §1
# [18] = target: Fuc(a1-2)Gal(b1-4)GlcNAc6S
# How it was run: as §1
# [19] = target: Fuc(a1-2)Gal(b1-4)[Fuc(a1-3)]GlcNAc
# How it was run: as §1
# [20] = target: Fuc(a1-2)Gal(b1-4)[Fuc(a1-3)]GlcNAc(b1-2)Man(a1-3)[Fuc(a1-2)Gal(b1-4)[Fuc(a1-3)]GlcNAc(b1-2)Man(a1-6)]Man(b1-4)GlcNAc(b1-4)GlcNAc
# How it was run: as §1
# [21] = target: Fuc(a1-2)Gal(b1-4)[Fuc(a1-3)]GlcNAc(b1-3)Gal(b1-4)[Fuc(a1-3)]GlcNAc
# How it was run: as §1
# [22] = target: Fuc(a1-2)Gal(b1-4)[Fuc(a1-3)]GlcNAc(b1-3)Gal(b1-4)[Fuc(a1-3)]GlcNAc(b1-3)Gal(b1-4)[Fuc(a1-3)]GlcNAc
# How it was run: as §1
# [23] = target: Fuc(a1-2)Gal6S(b1-4)Glc
# How it was run: as §1
# [24] = target: Fuc(a1-2)Gal6S(b1-4)Glc6S
# How it was run: as §1
# [25] = target: Fuc(a1-2)Gal6S(b1-4)GlcNAc
# How it was run: as §1
# [26] = target: Fuc(a1-2)[Gal(a1-3)]Gal
# How it was run: as §1
# [27] = target: Fuc(a1-2)[Gal(a1-3)]Gal(b1-3)GlcNAc
# How it was run: as §1
# [28] = target: Fuc(a1-2)[Gal(a1-3)]Gal(b1-3)GlcNAc(b1-2)Man(a1-3)[Fuc(a1-2)[Gal(a1-3)]Gal(b1-3)GlcNAc(b1-2)Man(a1-6)]Man(b1-4)GlcNAc(b1-4)GlcNAc
# How it was run: as §1
# [29] = target: Fuc(a1-2)[Gal(a1-3)]Gal(b1-4)Glc
# How it was run: as §1
# [30] = target: Fuc(a1-2)[Gal(a1-3)]Gal(b1-4)GlcNAc
# How it was run: as §1
binder,measurement,setting,value
B1,glycan array binding signal (z-score),[1],-0.279
same,glycan array binding signal (z-score),[2],-0.289
same,glycan array binding signal (z-score),[3],-0.195
same,glycan array binding signal (z-score),[4],-0.286
same,glycan array binding signal (z-score),[5],-0.286
same,glycan array binding signal (z-score),[6],-0.282
same,glycan array binding signal (z-score),[7],-0.259
same,glycan array binding signal (z-score),[8],-0.282
same,glycan array binding signal (z-score),[9],1.08
same,glycan array binding signal (z-score),[10],-0.292
same,glycan array binding signal (z-score),[11],-0.067
same,glycan array binding signal (z-score),[12],-0.273
same,glycan array binding signal (z-score),[13],-0.29
same,glycan array binding signal (z-score),[14],-0.271
same,glycan array binding signal (z-score),[15],-0.298
same,glycan array binding signal (z-score),[16],-0.298
same,glycan array binding signal (z-score),[17],-0.269
same,glycan array binding signal (z-score),[18],-0.282
same,glycan array binding signal (z-score),[19],-0.077
same,glycan array binding signal (z-score),[20],-0.037
same,glycan array binding signal (z-score),[21],-0.241
same,glycan array binding signal (z-score),[22],-0.135
same,glycan array binding signal (z-score),[23],-0.28
same,glycan array binding signal (z-score),[24],-0.288
same,glycan array binding signal (z-score),[25],-0.289
same,glycan array binding signal (z-score),[26],-0.276
same,glycan array binding signal (z-score),[27],-0.293
same,glycan array binding signal (z-score),[28],-0.251
same,glycan array binding signal (z-score),[29],-0.297
same,glycan array binding signal (z-score),[30],-0.29
